Reference: paper PMC4336329 (PLoS ONE, 2015)
Hit rate of the full screen: of about 310,000 compounds, about 2,200 (0.71%) showed an effect of 50% or more. The effect is printed as a negative number. This is one part of the list.

molecular target: human ether-à-go-go-related gene (hERG) potassium channel (human, UniProt Q12809); assay: primary screen, population patch clamp on CHO cells stably expressing hERG
Sequence (Q12809 whole entry, looked up): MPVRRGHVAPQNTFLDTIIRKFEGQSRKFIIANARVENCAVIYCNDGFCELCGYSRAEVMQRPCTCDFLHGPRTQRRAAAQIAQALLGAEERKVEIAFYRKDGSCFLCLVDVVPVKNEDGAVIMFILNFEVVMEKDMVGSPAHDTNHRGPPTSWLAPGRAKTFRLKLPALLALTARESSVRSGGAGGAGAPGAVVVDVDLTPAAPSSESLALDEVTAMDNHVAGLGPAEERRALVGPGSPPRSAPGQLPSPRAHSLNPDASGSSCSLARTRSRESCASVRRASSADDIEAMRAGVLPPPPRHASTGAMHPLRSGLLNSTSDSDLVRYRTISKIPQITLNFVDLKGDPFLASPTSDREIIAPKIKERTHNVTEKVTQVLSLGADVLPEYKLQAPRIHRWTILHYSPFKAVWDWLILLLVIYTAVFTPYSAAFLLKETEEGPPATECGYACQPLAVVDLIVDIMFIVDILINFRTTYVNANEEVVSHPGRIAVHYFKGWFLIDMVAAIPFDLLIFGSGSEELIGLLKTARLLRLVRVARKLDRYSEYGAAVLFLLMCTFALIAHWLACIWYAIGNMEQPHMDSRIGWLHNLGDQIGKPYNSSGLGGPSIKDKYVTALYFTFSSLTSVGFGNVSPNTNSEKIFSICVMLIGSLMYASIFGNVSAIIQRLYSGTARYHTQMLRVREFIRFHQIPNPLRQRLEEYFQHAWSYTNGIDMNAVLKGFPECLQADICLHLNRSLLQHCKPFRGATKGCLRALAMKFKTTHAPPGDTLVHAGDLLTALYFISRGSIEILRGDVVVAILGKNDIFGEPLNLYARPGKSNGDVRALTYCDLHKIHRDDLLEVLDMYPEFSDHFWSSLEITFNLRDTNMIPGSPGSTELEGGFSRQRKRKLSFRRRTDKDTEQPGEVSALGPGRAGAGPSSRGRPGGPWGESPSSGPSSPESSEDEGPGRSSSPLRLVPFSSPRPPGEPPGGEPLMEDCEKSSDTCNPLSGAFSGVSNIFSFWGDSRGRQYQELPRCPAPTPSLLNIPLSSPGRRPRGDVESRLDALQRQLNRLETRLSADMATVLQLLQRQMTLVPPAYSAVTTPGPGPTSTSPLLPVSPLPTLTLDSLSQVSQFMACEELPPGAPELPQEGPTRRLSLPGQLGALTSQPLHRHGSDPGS

Row | SMILES | hERG current change (%, negative = inhibition) at 1uM [%]
1 | CCCCCn1nnc2c(=O)oc3ccccc3c21 | 5.45
2 | CSC1=NCCN1C(=O)Cc1cccs1 | 5.49
3 | O=C(Cc1cccc2ccccc12)Nc1ccc(-c2cc3ccccc3oc2=O)cc1 | 5.11
4 | O=S(=O)(c1ccc(OCC(O)CN2CCCC2)cc1)N1CCOCC1 (stereo not drawn) | 9.44
5 | Cc1ccc(C(=O)n2cnc3ccccc32)cc1C | 10.5
6 | COc1ccc(NC(=O)c2cccc(S(=O)(=O)N3CCCCC3)c2)c(OC)c1 | 7.46
7 | N#Cc1ccc(S(=O)(=O)NC2CC2)cc1 | 18.1
8 | OC(CNCCc1ccc(Cl)cc1)COc1cc(Cl)ccc1Cl (stereo not drawn) | 2.52
9 | Cc1cc(=O)[nH]c(SCCOc2ccc(OC(C)C)cc2)n1 | 13.8
10 | O=C(CN1CCCCC1)Nc1ccccc1NC(=O)CN1CCCCC1 | 12
11 | ONC(=Nc1cccc(C(F)(F)F)c1)c1cccnc1 | 8.06
12 | O=C(NC(c1ccccc1)c1ccccc1)C1CCCN(S(=O)(=O)c2cnc[nH]2)C1 (stereo not drawn) | 16.4
13 | C/C(=N/NS(=O)(=O)c1cccc([N+](=O)[O-])c1)c1c[nH]c2ccccc12 | 7.92
14 | O=C1c2cccc3c(Nc4ccccc4Cl)c([N+](=O)[O-])cc(c23)C(=O)N1CCO | 11
15 | Cc1noc(C)c1C(=O)Nc1cccc(S(=O)(=O)N2CCCCC2)c1 | 4.49
16 | CC(C)COc1ccc(C(=O)N(Cc2ccco2)C2CCS(=O)(=O)C2)cc1 (stereo not drawn) | 6.87
17 | Cc1ccc(NC(=O)COc2cccc(C)c2C)cc1S(=O)(=O)N1CCCCCC1 | 0.574
18 | O=C(CSc1ncccn1)N1CCc2ccccc2C1 | 8.6
19 | CCC(C(=O)NCc1ccc(OC)cc1)n1nc(C)n2c(cc3occc32)c1=O (stereo not drawn) | -0.164

Row | SMILES | hERG current change (%, negative = inhibition) at 1uM [%]
20 | Cc1cc(NC(=O)c2ccc(S(=O)(=O)N(C)CC3CCCO3)cc2)no1 (stereo not drawn) | 10
21 | CCOc1cccc2cc(C(=O)NCc3ccccc3Cl)c(=O)oc12 | 14.2
22 | CCC(C)C(NC(N)=O)C(=O)Nc1ccc(OCc2ccccc2)cc1 (stereo not drawn) | 11
23 | CC(=O)Nc1ccc(NC(=O)Cn2cnc(S(=O)(=O)N3CCOCC3)c2)cc1 | 8.7
24 | CCC(C)C(=O)N1CCc2cc(-c3csc(N)n3)ccc21 (stereo not drawn) | 20.8
25 | COc1cccc(NC(=O)CN(c2ccc([N+](=O)[O-])cc2)S(=O)(=O)c2ccccc2)c1 | 14.8
26 | O=C(NNC(=O)c1sc2cccc(Cl)c2c1Cl)Nc1ccccc1 | 13.9
27 | O=c1oc2ccccc2cc1-c1csc(Nc2nc3ccc(F)cc3s2)n1 | 13.6
28 | O=c1cc(-c2c(O)c3ccccc3n(Cc3ccccc3)c2=O)[nH][nH]1 | 6.99
29 | CCCCCc1ccc(-c2ccc(OC)cc2)nc1 | 4.09
30 | Cc1cccc(Nc2nccc(N(C)C)c2C#N)c1 | 14.3
31 | CCOC(=O)c1sc(NC(=O)c2ccccc2C(=O)O)c(C(=O)OCC)c1C | 10.9
32 | Cc1ccc(S(=O)(=O)N2C(=O)C(C)SC2=Nc2ccccc2)cc1 (stereo not drawn) | 12.1
33 | Cn1cc(S(=O)(=O)N2CCCC2)cc1C(=O)NCc1ccccc1Cl | 1.96
34 | Cc1ccsc1C(=O)NCCc1nnc2ccccn12 | 13.1
35 | COc1cccc(NC(=O)C(Sc2nnc(Nc3ccccc3C)s2)c2ccccc2)c1 (stereo not drawn) | 6.4
36 | Cc1cccnc1Nc1nc(-c2ccc(O)cc2O)cs1 | -5.47
37 | CCCCN(C(=O)CSc1nnc(-c2ccccc2)n1C)c1c(N)n(Cc2ccccc2)c(=O)[nH]c1=O | 6.42
38 | Cc1cc(C)n(CC(C)O)c(=O)c1C#N (stereo not drawn) | 13.3

Row | SMILES | hERG current change (%, negative = inhibition) at 1uM [%]
39 | O=C1C2C3C=CC(C3)C2C(=O)N1Cc1ccccc1 (stereo not drawn) | -2.1
40 | COc1ccc(C(=O)C(Cc2cc(C(C)=O)ccc2OC)N2CCCC2)cc1 (stereo not drawn) | 8.78
41 | O=C(c1ccc2oc(CCCc3ccccc3)nc2c1)N1CCCCC1CO (stereo not drawn) | 15.1
42 | CC(C)NS(=O)(=O)c1ccc(OCC(=O)Nc2ccc(F)cc2F)cc1 | 6.77
43 | CC1CN=C2C(C(=O)Nc3ccccc3)=C(O)CC(c3ccccc3)N21 (stereo not drawn) | 5.43
44 | Cc1ccc(C(=O)NCC(=O)N2CCN(c3ccccc3)CC2)cc1 | 13.7
45 | Cc1c([N+](=O)[O-])cc(S(=O)(=O)Nc2ccncc2)cc1[N+](=O)[O-] | 15
46 | CCOC(=O)Cc1cc(=O)[nH]c(/N=C(/NC(=O)c2ccccc2)Nc2ccccc2C(F)(F)F)n1 | 6.61
47 | COCCCNC(=O)c1oc2ccc(S(=O)(=O)N3CCOCC3)cc2c1C | -1.13
48 | COc1ccccc1N1CCN(S(=O)(=O)c2ccc3c(c2)NC(=O)C(C)C(=O)N3)CC1 (stereo not drawn) | 6.48
49 | COc1ccc(NC(=O)CCC(=O)Nc2nnc(C3CCCCC3)s2)c(OC)c1 | 15.9
50 | CN(C(=O)c1cc2ccccc2cc1O)C1CCCCC1 | 2.13
51 | COc1ccc(C(=O)Nc2cccc(S(=O)(=O)NC3=NCCCCC3)c2)cc1 | 1.72
52 | CCc1nc(C)cn1S(=O)(=O)c1cc(OC)c(C)cc1C | 8.94
53 | Fc1ccc(Cn2nnnc2CN2CCN(C3CCCCC3)CC2)cc1 | -8.68
54 | CC(Oc1ccccc1F)C(=O)NNC(=O)CCNC(=O)c1ccco1 (stereo not drawn) | 3.18
55 | NC(=O)c1ccsc1NC(=O)COC(=O)c1nc(Cl)ccc1Cl | 10.4
56 | COCCNC(=O)C1CC(=O)N(c2ccc(OC)cc2)C1c1ccc(OC)cc1 (stereo not drawn) | -1.35
57 | FC(F)C(F)(F)C1=CC(c2cccs2)=NCCN1 | -7.04
